Over roughly 110,000 compounds, “z-score” has its median near -0.1; the highest 2% begin near 2. Some of the results follow. Calls of active or inactive are those of the source.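 The calls were made as follows: active = z-score in the third read window above 3 or below -3; inactive = the rest.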
molecular target: Metabotropic glutamate receptor 8 (Rattus norvegicus) (UniProt P70579); test: mGluR8 Gi/Go-coupled signaling modulation – cell-based, rat, thallium flux, HTS, primary screen (AID 488969); conditions: HEK293 rat mGluR8, GIRK (G protein-gated inwardly rectifying potassium channel) thallium flux, FluoZin2; at 10 µM; stronger effect = higher value; submaximal glutamate (EC20) added with thallium
Chain of UniProt P70579 (P70579 whole entry, looked up): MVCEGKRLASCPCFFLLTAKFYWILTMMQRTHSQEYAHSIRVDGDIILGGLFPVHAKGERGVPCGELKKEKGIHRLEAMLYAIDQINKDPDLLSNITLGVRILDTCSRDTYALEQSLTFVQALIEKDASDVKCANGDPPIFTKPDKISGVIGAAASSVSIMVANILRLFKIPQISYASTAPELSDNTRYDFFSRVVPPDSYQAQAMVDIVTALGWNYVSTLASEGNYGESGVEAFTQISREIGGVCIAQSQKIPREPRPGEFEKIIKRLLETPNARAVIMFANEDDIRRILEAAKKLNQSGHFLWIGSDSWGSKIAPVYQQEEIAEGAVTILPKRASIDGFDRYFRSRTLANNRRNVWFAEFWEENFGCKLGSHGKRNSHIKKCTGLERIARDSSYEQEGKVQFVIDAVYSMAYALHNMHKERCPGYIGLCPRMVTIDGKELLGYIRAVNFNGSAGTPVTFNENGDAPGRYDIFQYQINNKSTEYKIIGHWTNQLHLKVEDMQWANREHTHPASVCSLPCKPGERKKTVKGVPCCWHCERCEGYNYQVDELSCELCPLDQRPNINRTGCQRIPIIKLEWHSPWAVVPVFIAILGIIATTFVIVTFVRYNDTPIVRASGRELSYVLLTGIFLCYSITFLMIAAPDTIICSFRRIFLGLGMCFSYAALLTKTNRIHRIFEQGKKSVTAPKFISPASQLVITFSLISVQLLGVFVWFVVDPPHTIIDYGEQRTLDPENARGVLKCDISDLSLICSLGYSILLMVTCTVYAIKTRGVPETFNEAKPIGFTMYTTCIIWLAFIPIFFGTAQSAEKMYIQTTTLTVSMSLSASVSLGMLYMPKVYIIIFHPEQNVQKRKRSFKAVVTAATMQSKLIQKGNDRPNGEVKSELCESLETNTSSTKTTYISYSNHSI

| Structure (SMILES) | z-score |
| --- | --- |
| Cc1cccc2c(=O)c(C(=O)NCc3cccs3)c[nH]c12 | -0.208 |
| CCOC(=O)c1cnc(SCC(=O)Nc2ccccc2C(=O)OC)nc1N | -2.55 |
| COC(=O)c1cc2c(ccn2-c2ccc(F)cc2)n1Cc1cccc(OC)c1 | -0.401 |
| COc1ccccc1N(CN1CCCC1=O)C(=O)c1ccccc1F | -0.699 |
| CSc1nc2c(c(=O)n1C)SC(C)C2 (centres undefined) | -0.144 |
| O=C(c1ccco1)N1CCN(C(=O)c2cccc3c2C(=O)N(Cc2cccnc2)C3)CC1 | -0.521 |
| Cc1ccc(OCC(=O)NCCN2CCCC2)cc1 | -0.165 |
| COc1ccc(-c2c3c(=O)n(C)c(=O)n(C)c3cn2Cc2ccccn2)cc1 | 0.696 |
| CCn1c(C(C#N)/C(=N\S(=O)(=O)c2cccs2)c2ccccc2)nc2ccccc21 (centres undefined) | 0.0631 |
| COc1cc(C(=O)OCC(=O)Nc2ccc(C(C)=O)cc2)ccc1OCC(=O)N1CCOCC1 | -0.145 |
| CCOc1ccc(NC(=O)NCCCSC2CCCCC2)cc1 | 0.197 |
| CCC(=O)Nc1ccc(/C(C)=N\NS(=O)(=O)c2ccc(C)cc2)cc1 | -0.00673 |
| Cc1ccc(C(=O)COC(=O)c2cnccn2)cc1 | 1.02 |
| CCC1(CC)Nc2ccccc2C(=O)N1c1ccc(NC(C)=O)cc1 | -0.149 |
| O=C(CCN1CCCCC1)c1ccc2c(c1)OCO2 | 0.101 |
| O=c1[nH]c(CN2CCN(Cc3ccc4c(c3)OCO4)CC2)nc2ccccc12 | -0.226 |
| CCC(C)(C)C1CCC2(CC1)NC(=O)N(CC(=O)Nc1nc(-c3ccc(C)cc3)cs1)C2=O (centres undefined) | 0.0182 |
| Clc1ccc(OCc2cc(-c3ccccc3)no2)c(Cl)c1 | -0.0969 |
| O=C(Nc1ccc2c(c1)OCO2)C1CCN(Cc2cnn(-c3ccccc3)c2-n2cccc2)CC1 | -0.13 |
| O=C(CCCn1c(=O)c2sccc2n(CC(=O)OCc2ccccc2)c1=O)NCc1ccco1 | -0.791 |
| CC(C)CNc1ncnc2c1sc1nc(N3CCOCC3)c3c(c12)CC(C)(C)OC3 | -0.517 |
| O=C(N/N=C/c1ccc(OC(=O)c2cccs2)cc1)c1cccc(F)c1 | -0.311 |
| COC(=O)c1cc(CC(=O)c2ccc(O)cc2O)c(C)o1 | -0.571 |

| Structure (SMILES) | z-score |
| --- | --- |
| CN(C)S(=O)(=O)c1cccc(C(=O)OCC(=O)Nc2sccc2C#N)c1 | -0.065 |
| CC1CCCN(c2ccc(C(=O)OCn3nnc4ccccc4c3=O)cc2[N+](=O)[O-])C1 (centres undefined) | 0.0133 |
| Cc1ccc(N2C(=O)C(Cl)=C(NCCO)C2=O)c(C)c1 | -0.324 |
| NC(=S)NNc1cccc(Cl)c1 | 0.267 |
| Cc1ccc(OC(=O)c2cccc(S(=O)(=O)N(C)C)c2)c(-n2nc3ccccc3n2)c1 | -0.273 |
| Cc1ccc(Cl)cc1N1CCN(C(=O)Cc2ccc(-n3c(=O)[nH]c4ccsc4c3=O)cc2)CC1 | -0.665 |
| CN(C)CCCOc1ccc2c(c1)Sc1ccccc1CC2=O | 1.52 |
| CCN(CC(=O)Nc1ccccc1C(=O)OC)S(=O)(=O)c1ccc(OC)cc1 | -0.218 |
| Cc1ccc(C(=O)Nc2ccc3nc(C)sc3c2)s1 | -0.372 |
| CC(=O)C(=[N+]=[N-])C(=O)NCc1ccccc1 | 0.107 |
| O=C1CC(C(=O)Nc2ccccc2)S/C(=N\N=C\c2ccco2)N1 (centres undefined) | -0.194 |
| O=C(CCSc1nnnn1-c1ccccc1)N1CCOCC1 | 0.429 |
| Cn1cccc1C(=O)C(=O)Nc1ccccc1 | -0.302 |
| COc1ccc(N=C2S/C(=C\c3ccc(N4CCOCC4)o3)C(=O)N2CCc2c[nH]c3ccccc23)cc1 | -0.024 |
| C/C(=N\NC(=O)COc1ccccc1F)c1cc2ccccc2o1 | -0.0133 |
| COc1cc(-c2nnc(CSc3nc4ccccc4s3)o2)cc(OC)c1OC | active: -3.36 |
| Cc1ccc(-c2cc(N)on2)cc1 | 0.0101 |
| O=c1c2ccccc2[nH]c(=S)n1C1CCCCC1 | active: 12.5 |
| O=S(=O)(NC1CCCC1)c1cccc(-c2nnc(-c3ccccc3)o2)c1 | 1.25 |
| O=C(Oc1cccc(NC(=O)c2ccco2)c1)c1ccc(Br)c(S(=O)(=O)N2CCCCC2)c1 | 0.0261 |
| CN(C)c1ccnc(-n2cccc2/C=N/OCc2cccc(F)c2)c1C#N | -0.0405 |
| Cc1onc(-c2c(Cl)cccc2Cl)c1C(=O)Nc1ccc2c(c1)OCCO2 | -1.08 |
| Cc1cc(C)c[n+](-c2nc3ccccc3nc2[N-]S(=O)(=O)c2ccc(Br)s2)c1 | 0.032 |

| Structure (SMILES) | z-score |
| --- | --- |
| O=c1c2ccccc2sn1-c1ccccc1 | 0.323 |
| Cc1nc(-c2ccccc2)cn2c1nc1ccccc12 | -0.124 |
| CCOC(=O)c1c(C)n(CCNC(C)=O)c2ccc(O)cc12 | -0.319 |
| CCc1ccc(CNC(=O)C(=O)NCCc2ccc(OC)c(OC)c2)cc1 | -0.0536 |
| COc1ccc(OC)c(N(CC(=O)Nc2cccnc2)S(=O)(=O)c2ccccc2)c1 | -0.398 |
| COc1ccc(OC)c(S(=O)(=O)Nc2ccc(F)cc2)c1 | -0.221 |
| COc1cc(OC)c(C(=O)Nc2ccc(S(=O)(=O)Nc3ncccn3)cc2)cc1OC | -0.186 |
| O=C(Nc1ccc2c(c1)OCO2)C1CCN(C(=O)CSc2ncnc3ccccc23)CC1 | -0.185 |
| Cc1ccccc1C1CC(c2ccc(F)cc2)Nc2nc(N)nn21 (centres undefined) | -0.217 |
| O=[N+]([O-])c1cc(/C=N\Nc2nccs2)ccc1O | -0.49 |
| C/C(=N\NC(=O)C(=O)Nc1ccc(C)c(Cl)c1)c1ccncc1 | -0.346 |
| CCCP(=O)(CCC)CCP(=O)(c1ccccc1)c1ccccc1 | 0.789 |
| CCOC(=O)c1cnc(SC)nc1Sc1ccc(Cl)cc1Cl | -0.0741 |
| N#CCSc1nc2cc(C(=O)N3CCCC3)ccc2c(=O)n1Cc1ccccc1 | -1.85 |
| Cc1ccc(CSc2nc3ccccc3cc2C=O)cc1 | -0.338 |
| COc1ccc(N2CCN(S(=O)(=O)c3ccc4c(c3)CCCC4)CC2)c([N+](=O)[O-])c1 | -0.261 |
| Cc1cnc(C(=O)Nc2ccc(C)c(S(=O)(=O)N(C)C)c2)cn1 | -0.281 |
| O=C(Cn1c2ccccc2c(=O)c2ccccc21)Nc1cccc(F)c1 | -0.214 |
| CCOc1cc(C(=O)Nc2ccc3c4c(cccc24)C(=O)N3CC)cc(OCC)c1OCC | -0.652 |
| CC(C)C(NS(=O)(=O)c1cccs1)C(=O)NCCN1CCN(c2ccccc2)CC1 (centres undefined) | 1.05 |
| CC(=O)c1ccc(NC(=O)c2cc(CC(C)C)on2)cc1 | 0.32 |
| Cn1c(=O)c2c(nc(CN3CCOCC3)n2CCc2ccccc2)n(C)c1=O | -0.0314 |
| CCC(CC)C(=O)c1c[nH]c(C(=O)NCCCN2CCOCC2)c1 | 0.0435 |
